# About 14,000 (4.5%) of roughly 310,000 compounds showed an effect of 50% or more. The effect is printed as a negative number. This is one part of the list. Where a SMILES comes first, the peptide text is derived from it. [ ]: non-standard residue; d: D form. The star is where a group is joined. ξ: configuration not given here. Cbz = O=C(OCc1ccccc1)*; ξA = CC(N)C(=O)O
# Target: human ether-à-go-go-related gene (hERG) potassium channel (human, UniProt Q12809)
# Test: primary screen, population patch clamp on CHO cells stably expressing hERG
# 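Also: peak tail current of the secondary pulse compared with the same well before compound.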
# Chain of human ether-à-go-go-related gene (hERG) potassium channel (Q12809 whole entry, looked up): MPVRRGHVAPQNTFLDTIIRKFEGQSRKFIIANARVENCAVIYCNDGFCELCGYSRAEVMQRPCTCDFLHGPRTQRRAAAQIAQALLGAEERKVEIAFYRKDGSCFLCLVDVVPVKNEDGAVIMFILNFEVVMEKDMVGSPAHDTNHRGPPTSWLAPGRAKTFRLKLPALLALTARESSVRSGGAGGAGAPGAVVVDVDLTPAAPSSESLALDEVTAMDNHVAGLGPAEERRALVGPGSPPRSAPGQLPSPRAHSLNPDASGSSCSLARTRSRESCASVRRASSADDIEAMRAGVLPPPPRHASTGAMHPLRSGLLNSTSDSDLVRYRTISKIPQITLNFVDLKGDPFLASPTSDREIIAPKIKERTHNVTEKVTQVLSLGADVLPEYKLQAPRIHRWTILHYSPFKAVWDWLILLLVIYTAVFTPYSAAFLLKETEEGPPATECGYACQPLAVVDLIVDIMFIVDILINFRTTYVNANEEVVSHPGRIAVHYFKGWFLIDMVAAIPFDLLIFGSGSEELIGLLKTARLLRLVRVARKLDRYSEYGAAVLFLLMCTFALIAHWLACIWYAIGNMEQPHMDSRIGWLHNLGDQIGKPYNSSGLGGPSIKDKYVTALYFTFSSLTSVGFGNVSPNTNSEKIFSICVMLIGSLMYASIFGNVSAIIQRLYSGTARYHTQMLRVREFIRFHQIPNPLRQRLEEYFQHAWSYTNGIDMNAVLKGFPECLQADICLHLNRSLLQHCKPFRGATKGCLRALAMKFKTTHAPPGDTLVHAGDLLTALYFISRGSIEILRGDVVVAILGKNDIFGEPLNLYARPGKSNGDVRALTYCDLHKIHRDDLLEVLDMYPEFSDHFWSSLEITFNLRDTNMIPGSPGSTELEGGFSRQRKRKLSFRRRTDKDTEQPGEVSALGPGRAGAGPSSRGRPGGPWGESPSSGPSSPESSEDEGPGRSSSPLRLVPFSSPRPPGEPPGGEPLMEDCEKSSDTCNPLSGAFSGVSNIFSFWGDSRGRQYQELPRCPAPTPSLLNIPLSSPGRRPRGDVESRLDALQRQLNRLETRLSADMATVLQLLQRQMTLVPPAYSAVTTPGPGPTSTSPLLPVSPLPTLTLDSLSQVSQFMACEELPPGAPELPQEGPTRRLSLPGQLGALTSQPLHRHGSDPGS
row,SMILES,"hERG current change (%, negative = inhibition) at 10uM [%]"
1,CC(=O)Nc1ccc(NC(=O)CN(c2ccc(F)cc2)S(=O)(=O)c2ccc3c(c2)OCCO3)cc1,15.3
2,Cc1ccc(NC(=O)c2cc(NC(=O)/C=C\C(=O)O)ccc2N2CCCCC2)cc1,-3.11
3,CCc1ccccc1NC(=S)N(CCN(C)C)Cc1cccs1,-22.4
4,Cc1cc(OCC(=O)NNC(=S)NCC2CCCO2)cc(C)c1Cl (centres unmarked),13.6
5,Cc1ccc(OCc2nnc(SCC(=O)O)n2N)cc1,22.2
6,N#Cc1ccc(Oc2ccc(/C=N/O)cn2)cc1,-73.7
7,CCOC(=O)C1=C(C)Nc2ccccc2N=C1NC(=O)Cc1ccc(OC)cc1,13.9
8,COc1ccccc1CC(=O)N1CCCc2ccccc21,0.493
9,NC(=O)c1nsc(C(=O)N(c2ccccc2F)C(C(=O)NCc2ccccc2)c2ccc(O)cc2)c1N (centres unmarked),-7.18
10,O=C(c1ccco1)N1CCN(Cc2cc(=O)c(OCc3cccc(F)c3)co2)CC1,-76.4
11,CCC(=O)NC(c1ccccc1)c1c(OC(C)=O)ccc2ccccc12 (centres unmarked),-13.4
12,CC(=O)CSc1nnc(CSc2ncccn2)n1C1CCCCC1,-18.8
13,Cc1cccc(C)c1N1C(=O)CN(Cc2ccccc2)C1=S,-28.4
14,COC(=O)CNC(=O)C(C)NC(=O)CNC(=O)OCc1ccccc1 (stereo not drawn) (Cbz-Gly-[ξA]-Gly-OMe),-1.25
15,C/C(=N\Nc1ccc(Cl)c(C(=O)O)c1)c1cccc2ccccc12,-9.41
16,O=C(NCc1ccccn1)C1CCN(S(=O)(=O)c2cnc[nH]2)CC1,9.99
17,O=C(O)C1CC(=O)n2c(nc3ccccc32)S1 (centres unmarked),18.5
18,O=C(CN(Cc1ccccc1)C(=O)CNS(=O)(=O)c1ccccc1)NCC1CCCO1 (centres unmarked),1.85
19,Nc1nc(NC(=O)c2ccccc2Cl)nn1-c1ccccc1,1.53

row,SMILES,"hERG current change (%, negative = inhibition) at 10uM [%]"
1,CCOc1ccc(S(=O)(=O)NCCC(=O)N2CC(C)CC(C)C2)cc1 (centres unmarked),-22.2
2,C=CCC(COCc1ccccc1)NS(=O)(=O)c1ccccc1Br (centres unmarked),-2.59
3,CCOC(=O)C(CC)/C(C)=N/NC(=O)c1ccccc1[N+](=O)[O-] (centres unmarked),-14
4,COc1cc(NS(=O)(=O)c2ccc(NC(=O)C3CCCO3)cc2)nc(OC)n1 (centres unmarked),6.87
5,Cc1cccc([N+](=O)[O-])c1C(=O)O,11.6
6,CC(Nc1cccnc1)=C(C#N)C#N,1.13
7,COc1ccc(-c2cc3nc(C)c(CCC(=O)NCc4ccc(F)cc4)c(C)n3n2)c(OC)c1,-60.4
8,Cc1cnc(CN(C)C(=O)CC2C(=O)NCCN2CCCc2ccccc2)[nH]1 (centres unmarked),12.9
9,CC(NC(=O)/C(C#N)=C1\N=C(NC(=O)c2cccs2)c2ccccc21)c1ccccc1 (centres unmarked),6.61
10,N#Cc1ccccc1NC(=S)NC(=O)C1CCC1,9.95
11,COc1ccc(CNC(=O)N2CCc3ccccc3C2)cc1Cl,5.83
12,Cc1ccc(C(=O)Nc2ccccc2)cc1S(=O)(=O)Nc1ccc(Cl)cn1,7.53
13,Cl.O=C(Nc1nnc(CCN2CCCCC2)s1)c1ccccc1,4.58
14,O=C(Cc1ccc(Br)cc1)N1CCN(C(=O)c2ccco2)CC1,-32.3
15,CCOc1ccc(-n2c(=O)[nH]c3sc4c(c3c2=O)CCCC4)cc1,16.7
16,CCCCNc1nc(-c2ccccc2)nc(-n2ccnc2)n1,12.2
17,O=C(CSc1nc(N2CCOCC2)nc(N2CCOCC2)n1)Nc1ccc([N+](=O)[O-])cc1,-12.8
18,COCCNC(=O)c1cccc(S(=O)(=O)N2CC3(C)CC2CC(C)(C)C3)c1 (centres unmarked),-13.1
19,Cn1cccc1/C=N/N1CCN(Cc2ccc(Cl)cc2)CC1,-17.8

row,SMILES,"hERG current change (%, negative = inhibition) at 10uM [%]"
1,CCOC(=O)Cn1nc(-c2ccccc2)nc1-c1ccccc1,-9.06
2,CCN(CC(=O)Nc1c(F)cccc1F)C(=O)c1ccc(N2CCOCC2)c([N+](=O)[O-])c1,0.198
3,O=C(c1cccc(S(=O)(=O)N2CCCCC2)c1)N1CCN(S(=O)(=O)c2ccc(F)cc2)CC1,-40.6
4,COCCn1c(C)c(C)c2c(NCCc3ccccc3)ncnc21,-29.3
5,COc1cccc(NC(=O)COc2cc(O)c3c(c2)OC(C)(C)CC3=O)c1,-19.9
6,CCCS(=O)(=O)N1CCC(C(=O)NC2CCC(C)CC2)CC1 (centres unmarked),12.5
7,CCOC(=O)C1=C(C)N(C)C2(C)CC1c1ccccc1O2 (centres unmarked),-17.5
8,O=C(Nc1ccc(OC(=O)N2CCCCC2)cc1)N1CCOCC1,4.57
9,O=C(c1cccc2c1C(=O)N(Cc1cccnc1)C2)N1CCN(c2ccccc2)CC1,-6.06
10,CC(c1nnc(Sc2nnnn2-c2ccccc2)n1-c1ccc(F)cc1)N(C)C (centres unmarked),3.57
11,COc1cccc(C(=O)Nc2ncc3c(n2)CC(C)(C)CC3=O)c1,-19.3
12,CCCCN(CC)CCNC(=S)Nc1ccc2nc(N3CCN(C)CC3)cc(C)c2c1,-0.781
13,CCCN1CCC(NC(=S)Nc2cccc(Cl)c2Cl)CC1,-4.2
14,O=C(Cc1ccc(Cl)cc1)Nc1cc(S(=O)(=O)N2CCOCC2)ccc1N1CCCC1,-37.3
15,CCOC(=O)Cn1c2ccccc2c2nc(C)sc21,12.3
16,CCCc1cc(=O)oc2cc(OCC(=O)N3CCC(C(N)=O)CC3)ccc12,-6.67
17,CCc1cccc2c(C=C(C#N)C#N)cn(CC(=O)N3CCCCC3)c12,-6.22
18,CN(C)CCCN(C(=O)c1ccc(Cl)s1)c1nc2cc3c(cc2s1)OCO3,-69

# Source: publication PMC4336329 (PLoS ONE, 2015)
